Here are results for 86 sequences from the supplement of paper PMC3334620.

Over roughly 33,000 sequences, “E-score (-0.5 to 0.5)” has its median near -0.035; the highest 2% begin near 0.34. This is one part of the list.

The target of this experiment is T1, Mot3 (UniProt P54785).
T1 sequence: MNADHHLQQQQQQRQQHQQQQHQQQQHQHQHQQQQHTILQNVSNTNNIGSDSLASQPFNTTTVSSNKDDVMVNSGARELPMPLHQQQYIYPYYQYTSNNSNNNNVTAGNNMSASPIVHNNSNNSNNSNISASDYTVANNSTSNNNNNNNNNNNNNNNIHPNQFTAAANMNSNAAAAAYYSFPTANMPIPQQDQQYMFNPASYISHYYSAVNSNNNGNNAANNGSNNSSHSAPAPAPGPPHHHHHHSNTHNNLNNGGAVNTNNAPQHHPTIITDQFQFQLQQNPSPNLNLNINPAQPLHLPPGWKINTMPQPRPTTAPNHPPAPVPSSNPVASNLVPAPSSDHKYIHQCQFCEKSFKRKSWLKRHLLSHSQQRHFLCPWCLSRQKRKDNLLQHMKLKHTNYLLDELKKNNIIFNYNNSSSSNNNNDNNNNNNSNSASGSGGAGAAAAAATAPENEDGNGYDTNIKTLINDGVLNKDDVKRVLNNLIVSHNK
In words: PBM E-score (8-mer binding enrichment) (E-score (-0.5 to 0.5)); higher = stronger / more preferred TF binding; most listed sequences are background and not binding sites. The settings on record: protein concentration: 200 nM; construct: GST-full length. In a few lines:
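PURExpress in vitro transcription/translation supplied GST-tagged yeast transcription factors, either full-length or DNA-binding domain. Applied at about 100-200 nM to universal all-10-mer Agilent arrays double-stranded by primer extension, the bound protein was detected with fluorescent anti-GST. E-scores, modified Wilcoxon-Mann-Whitney statistics, were given by the Universal PBM Analysis Suite to ungapped eight-base words pooled with their reverse complements after masliner normalisation.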
Regarding AAGCCGAC, the “PBM E-score” value was -0.119.
With AGGCCCAC, the “PBM E-score” value was -0.0299.
Take CGTTCAGC: the “PBM E-score” value was -0.0729.
Regarding GAATACGC, the “PBM E-score” value was found to be 0.275.
Under ACCGTCAA stands -0.169; under ACTTCCGA, -0.128; under CCACCTCC, -0.251.
Under GTGTCCTA stands 0.169; under GCGAAGAA, -0.0244.
The same measure for CGGAAGCC: -0.237; for AGTGGCGA: -0.122.
With GCAACATA, the “PBM E-score” value was 0.177.
For the sequence GTGTCTGA, the “PBM E-score” value came out at 0.0668.
The same measure for TGACACCA: -0.102.
For the sequence ATTCCACG, the “PBM E-score” value was -0.116.
Under GCGGAGAC stands -0.137; under AGCGCGTG, 0.0899; under TCGGGTAA, 0.209.
Turning to CGGCCTGC, the “PBM E-score” value is -0.212.
Under GCCTAAAC stands 0.251; under ATGGCCGA, 0.0543; under GGCGGCAA, -0.223.
In the case of AGTAGTGC, the “PBM E-score” value was -0.0732.
For the sequence ATCAGTTA, the “PBM E-score” value came to 0.1.
Turning to AGGTGGAT, the “PBM E-score” value is -0.0952.
Take ACGATGAT: the “PBM E-score” value was -0.0832.
For the sequence CTTTTCTA, the “PBM E-score” value is -0.0272.
In the case of CGATCCAG, the “PBM E-score” value is -0.148.
As for GTTCGGCA, the “PBM E-score” value is 0.0214.
The same measure for CTTCTAAA: 0.056.
Under TAGACTGA stands -0.0923.
With CTAAATTC, the “PBM E-score” value is -0.0876.
As to CGGTTCAC, the “PBM E-score” value is -0.248.
Under AACGTTAG stands 0.0962.
Take GGGTACTA: the “PBM E-score” value came to 0.128.
In the case of CACTCCTA, the “PBM E-score” value is -0.0744.
The same measure for TCCGCACA: -0.17; for CGTGGCGA: -0.225.
The same measure for ATAAAAAA: 0.105; for ATGAGGTA: 0.0008.
The same measure for AAGACGTA: 0.108.
As for AAGCGGAT, the “PBM E-score” value was -0.0845.
The same measure for GACTAAGA: -0.222; for AGCAAGCT: -0.242.
Turning to AATCAACC, the “PBM E-score” value was -0.0448.
Take AGAAGTGC: the “PBM E-score” value was -0.166.
The same measure for AAGGAACC: 0.462; for AAAAGTAT: -0.0544; for GTGTTCTA: 0.208.
The same measure for ACGGCGTA: 0.231; for ATTTGAGA: -0.0132; for AACCTCGA: -0.021.
Under CTAAGAGC stands -0.197.
For ACGCTGAG, the “PBM E-score” value was -0.175.
Under ACTCACCA stands -0.0911.
Consider TAATGGAA, for which the “PBM E-score” value was -0.0062.
As for CGAATCAC, the “PBM E-score” value was -0.0617.
The same measure for AAAATACC: 0.0313; for AAGACCCC: -0.0948.
Under ATCCCGTG stands 0.0831; under TCCAGGGA, -0.212.
Regarding CACACTCC, the “PBM E-score” value is -0.178.
The same measure for ACAGGGCG: 0.0728.
The same measure for AGGAGCTG: -0.172; for AAGGGCGA: -0.284.
Under GCTCGGGA stands -0.175.
For the sequence CGGGAGAC, the “PBM E-score” value was -0.155.
The same measure for AACATATC: 0.171; for CTGAATGC: -0.169; for AGCGCCAG: -0.14.
Under ATCCATTG stands -0.135.
Under GGCATGGA stands -0.0411; under AGCACCCT, -0.214; under GTTATGTA, 0.323.
Consider ACTCAGGC, for which the “PBM E-score” value was 0.241.
In the case of CCTGTCAA, the “PBM E-score” value amounted to 0.214.
For GAACAGTC, the “PBM E-score” value was -0.172.
As for ATCTTGGC, the “PBM E-score” value was -0.221.
Regarding AGAAAGAG, the “PBM E-score” value was -0.195.
In the case of CAAACTAG, the “PBM E-score” value came out at 0.059.
For the sequence ATGAACAT, the “PBM E-score” value is 0.252.
For CAGGATAG, the “PBM E-score” value is -0.137.
Under AGGTGCCC stands 0.295.
The same measure for CCCGTTTC: -0.208; for GATACGTA: 0.215.
ATGTGTGA: the “PBM E-score” value was 0.125.
